According to PubChem BioAssay AID504832 (National Center for Advancing Translational Sciences (NCATS), 2011):
In all, about 310,000 compounds went through this assay and about 18,000 (5.8%) were called active. The inconclusive results got no clear call from the source; some entries with a clear call stand among them for comparison. The call rests on the fitted dose curve; in most records, active means well fitted inhibition curve with a large enough effect; inconclusive means small, poorly fitted or top-dose-only effect, or another doubt; inactive means no such curve, though single readings can be large or run the other way. No potency is given beside an inconclusive call; the fits are too rough.

Experiment: Primary qHTS for delayed death inhibitors of the malarial parasite plastid, 48 hour incubation
Settings: P. falciparum luciferase growth in erythrocytes; series mostly up to 28.7 µM; activity change, negative = inhibition: at the top concentration
Summary of the method: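 A one-generation exposure of luciferase-tagged malaria parasites in RPMI 1640/Albumax erythrocyte culture, 37 C and 5% CO2. Inhibition is inferred from decreased luminescence after adding detection reagent.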
On the % scale 0 is the no-effect control and ±100 the full control effect; potency means the concentration at half of the fitted maximal effect; tags describe the fitted curve by direction and shape.

Compound	Potency	activity change, negative = inhibition
COc1ccc(C(C)NC(=O)CC23CC4CC(CC(C4)C2)C3)cc1 (stereo unspecified)	inconclusive [inhibitor, partial curve, poor fit]	
CCOc1ccccc1NC(=O)CSc1nc(=O)n(CCCN2CCOCC2)c2c1CCC2	inconclusive [inhibitor, single point]	
O=C(NNC1OC(CO)C(O)C(O)C1O)c1cccnc1 (stereo unspecified)		inactive: 27.8%
COc1ccc(CCNCC(O)COc2cccc(Br)c2)cc1OC (stereo unspecified)	inconclusive [inhibitor, single point]	
NC(=O)C1CCN(C(=O)c2cccc(S(=O)(=O)N3CCCC3)c2)CC1		inactive: 28.1%
COc1ccc(C(=O)NC(CO)c2nnc(SCc3ccc(Cl)c(Cl)c3)n2C)cc1 (stereo unspecified)		inactive: -6.37%
COc1ccc(C2=NN(C(N)=S)C(c3ccccc3)C2)cc1 (stereo unspecified)	inconclusive [inhibitor, single point]	
Cc1ccc(S(=O)(=O)N2CCN(C(=O)CSc3nc(N)cc(=O)[nH]3)CC2)c(C)c1		inactive: 7.89%
Cc1cccc(-c2cc(C(=O)N3CCCc4ccccc43)c3ccccc3n2)c1	active: 8.28 µM	
Clc1ccccc1Nc1nnc(-c2ccncc2)s1		inactive: 76.1%
O=C1Oc2ccccc2C(=O)C1C(CC(O)c1ccc(-c2ccc(Br)cc2)cc1)c1ccccc1 (stereo unspecified)		inactive: -2.7%
COCC1CCN(Cc2nc(-c3ccc4c(c3)OCO4)no2)C1 (stereo unspecified)		inactive: 71.4%
Cc1ccc(C(=O)NCCNc2nc3cc(C)c(C)cc3cc2C)cc1	inconclusive [inhibitor, single point]	
O=c1cc(CN2CCN(S(=O)(=O)/C=C/c3ccccc3)CC2)c2ccc(O)cc2o1	active: 13.1 µM	
Cc1nn(CC(=O)NCCN2CCOCC2)c(C)c1[N+](=O)[O-]	inconclusive [inhibitor, partial curve, poor fit]	
O=C(NC1CCCCC1)C1CCCN(S(=O)(=O)c2cccs2)C1 (stereo unspecified)	inconclusive [inhibitor, partial curve, poor fit]	
CCOC(=O)c1c(-c2ccccc2)csc1NC(=O)CSc1ccccc1	inconclusive [inhibitor, partial curve]	
Cc1cc(C)n(-c2nc(NC(C)(C)C)nc(NC(C)(C)C)n2)n1	inconclusive [inhibitor, full curve]	

Compound	Potency	activity change, negative = inhibition
CCNC(=S)NNC(=O)c1cc(-c2cc(C)ccc2C)nc2ccccc12	inconclusive [inhibitor, single point]	
C(=C\c1ccc2ccccc2n1)/c1ccccc1		inactive: -38.5%
COc1cccc(/C=N/NC(=O)c2ccc(N3CCCC3=O)cc2)c1	inconclusive [inhibitor, partial curve]	
COc1ccc(CN(CC2CCCO2)C(=O)c2cc3sccc3n2C)c(OC)c1 (stereo unspecified)	inconclusive [inhibitor, single point]	
CCOc1ccc(-c2nn(-c3ccccc3)cc2/C=C2\SC(N)=NC2=O)cc1C	inconclusive [inhibitor, partial curve, poor fit]	
CC(C)(C)C1CCc2sc(-c3nnc(CCl)o3)cc2C1 (stereo unspecified)	active: 13.1 µM	
CCOC(=O)Cc1cn(C(=O)OC(C)(C)C)c2ccccc12	inconclusive [inhibitor, single point]	
CC(C)NC(=O)NC(=O)CSc1ccc(S(=O)(=O)N2CCCC2)cn1		inactive: 20.8%
CCCOc1nc(SCCC)nc2c1cnn2-c1ccccc1	inconclusive [inhibitor, partial curve, poor fit]	
Cc1ncc(CO)c(/C=N/NC(=O)c2cc3c(s2)CCCC3)c1O	inconclusive [inhibitor, single point]	
CCOc1ccc(NC(=O)NC(C)CC)cc1 (stereo unspecified)		inactive: 24%
COc1ccc(OC)c(NC(=O)CN(Cc2ccc(F)cc2)C2CCCCC2)c1	active: 4.65 µM	
N#Cc1cn(CC(=O)N2CCc3ccccc3C2)c2ccccc12	inconclusive [inhibitor, single point]	
O=C(/C=C/c1cccc(Cl)c1Cl)OCC(=O)N1CCOCC1		inactive: 3.75%
COCCOc1ccc(C(F)(F)F)cc1NC(=O)c1ccccc1F	inconclusive [inhibitor, full curve, poor fit]	
Nc1ncnc2c1ncn2CCOCP(=O)(O)O		inactive: -8.89%
Cc1cc(C)c2nc(N3CCCN(C(=O)c4cnccn4)CC3)c(C#N)cc2c1		inactive: 7.39%
Cc1sc(NC(=O)/C=C/c2ccco2)c(C(=O)OC(C)C)c1C		inactive: 24.4%
